Test results as given in paper PMC4336329 (PLoS ONE, 2015).
Hit rate of the full screen: of about 310,000 compounds, about 2,200 (0.71%) showed an effect of 50% or more. Effects have a minus sign here. This is one part of the list.

What follows are compounds tested against human ether-à-go-go-related gene (hERG) potassium channel (human, UniProt Q12809) (assay: primary screen, population patch clamp on CHO cells stably expressing hERG).
Sequence of human ether-à-go-go-related gene (hERG) potassium channel (Q12809 whole entry, looked up): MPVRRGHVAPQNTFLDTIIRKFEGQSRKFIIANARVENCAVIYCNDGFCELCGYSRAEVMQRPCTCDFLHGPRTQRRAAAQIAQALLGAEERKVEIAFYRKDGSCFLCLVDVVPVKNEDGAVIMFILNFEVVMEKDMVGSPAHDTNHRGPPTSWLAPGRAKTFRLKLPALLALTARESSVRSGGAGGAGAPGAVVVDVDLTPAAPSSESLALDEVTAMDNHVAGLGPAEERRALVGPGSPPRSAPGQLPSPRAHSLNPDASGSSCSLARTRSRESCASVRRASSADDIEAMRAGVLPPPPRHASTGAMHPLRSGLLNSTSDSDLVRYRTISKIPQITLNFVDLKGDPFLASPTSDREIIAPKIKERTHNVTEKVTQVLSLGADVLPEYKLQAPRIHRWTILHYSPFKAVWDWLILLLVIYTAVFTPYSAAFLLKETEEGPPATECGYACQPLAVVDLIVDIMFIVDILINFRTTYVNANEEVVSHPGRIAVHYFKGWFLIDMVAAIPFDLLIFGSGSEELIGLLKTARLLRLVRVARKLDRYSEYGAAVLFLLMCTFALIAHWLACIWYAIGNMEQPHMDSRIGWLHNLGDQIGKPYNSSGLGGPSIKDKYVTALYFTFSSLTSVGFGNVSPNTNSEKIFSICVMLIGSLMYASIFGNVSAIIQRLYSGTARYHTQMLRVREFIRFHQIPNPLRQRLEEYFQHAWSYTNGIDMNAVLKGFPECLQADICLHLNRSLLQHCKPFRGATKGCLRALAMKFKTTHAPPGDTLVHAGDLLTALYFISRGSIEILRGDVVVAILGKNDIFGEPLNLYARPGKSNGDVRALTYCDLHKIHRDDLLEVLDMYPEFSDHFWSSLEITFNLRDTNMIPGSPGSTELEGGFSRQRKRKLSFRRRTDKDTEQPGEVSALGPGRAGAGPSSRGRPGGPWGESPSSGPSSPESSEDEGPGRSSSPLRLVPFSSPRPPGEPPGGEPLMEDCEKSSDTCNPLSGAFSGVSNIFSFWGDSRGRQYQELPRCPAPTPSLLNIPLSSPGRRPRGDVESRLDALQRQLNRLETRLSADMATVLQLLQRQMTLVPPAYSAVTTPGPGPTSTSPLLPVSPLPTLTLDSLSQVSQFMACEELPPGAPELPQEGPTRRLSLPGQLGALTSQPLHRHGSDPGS

In order of rising “hERG current change (%, negative = inhibition) at 1uM” value:
1. COc1ccccc1NC(=O)N(CCN(C)C)Cc1cc2cc(C)ccc2[nH]c1=O  -29.9%
2. CC1CCN(S(=O)(=O)c2cc(C(=O)N3CCN(c4ncccn4)CC3)ccc2Br)CC1  -22.6%
3. CCS(=O)(=O)c1ccc2oc(SCC(=O)NCCC3=CCCCC3)nc2c1  -20.6%
4. COc1cc(/C=N/NC(=O)c2ccccn2)ccc1OC(=O)c1cccs1  -10.1%
5. NS(=O)(=O)c1ccc(NC(=S)NNC(=O)CCC(=O)Nc2ccccc2Cl)cc1  -8.56%
6. COC(=O)c1[nH]c2ccccc2c1NC(=O)CN1CCCc2ccccc21  -7.78%
7. COc1ccccc1NC(=O)COc1coc(CN2CCN(c3ccccc3)CC2)cc1=O  -3.77%
8. COc1ccccc1C(=O)CSc1nccn1C  -1.6%
9. Cl.ClCCN1C2=NCCCN2c2ccccc21  -1.36%
10. CCCc1cc(-n2ccnc2)n2c(nc3ccccc32)c1C#N  -1.04%
11. O=C(CSc1ncccc1C(=O)O)NCCC1=CCCCC1  -1.03%
12. CCOc1nc(-c2ccc(OC)cc2)ccc1-c1noc(C)n1  -0.2%
13. Cn1c(SCC(=O)NC(=O)NCc2ccccc2)nnc1C(F)(F)F  0.965%
14. Cc1ccc(OCC(=O)N/N=C/c2c[nH]c3ccccc23)c([N+](=O)[O-])c1  1.03%
15. COc1ccc(C(=O)N2CCc3cc(OC)c(OC)cc3C2c2ccc(OC)c(OC)c2)cc1 (stereo not shown)  1.47%
16. COc1cc(C(=O)Nc2cccc(NC(=O)c3ccccc3)c2)cc(OC)c1OC  1.58%
17. COc1ccc(OC)c(-c2csc(NC(=O)C3=NN(c4ccccc4)C(=O)CC3)n2)c1  1.94%
18. CCc1ccc(-c2cc(C(=O)NCc3ccco3)c3ccccc3n2)s1  2.59%
19. CCCCNc1c(-c2ccc(-c3ccc(C(C)=O)cc3)c(OC)c2)nc2cnccn12.O=C(O)C(F)(F)F  3.76%
20. Cc1cc(C)nc(SCCn2c(N(C)Cc3ccccc3)nc3c2c(=O)n(C)c(=O)n3C)n1  4.27%
21. Clc1ccc(-c2nnc(NCc3ccccc3)c3ccccc23)cc1  4.55%
22. O=C(NCc1cccnc1)c1ccc(-c2cccc(Cl)c2Cl)o1  5.38%
23. CCN(CC)CCCN1C(=O)C(=O)/C(=C(/O)c2ccc(Cl)cc2)C1c1ccccn1 (stereo not shown)  5.86%
24. Cc1nc(C(F)(F)F)nc(Nc2ccc(N=Nc3ccccc3)cc2)c1C#N  6.04%
25. CCCCC(CC)COP(=O)(OCC(CC)CCCC)OCC(CC)CCCC (stereo not shown)  6.51%
26. Cn1cnnc1SCC(=O)Nc1ccc2nc(SCc3cccc4ccccc34)sc2c1  6.71%
27. Fc1ccc(CSc2nnc(-c3ccccn3)o2)cc1  6.84%
28. Cc1ccc(-c2nnn(CC(=O)Nc3cccc4c3CCCC4)n2)o1  7.41%
29. CCOC(=O)c1sc(NN=C(C(=O)OC)C(=O)OC)c(C(=O)OCC)c1C  7.55%
30. O=C(C1CC1)N1CCN=C1SCc1cccc(C(F)(F)F)c1  8.63%
31. O=C(/C=C/Nc1ccc(S(=O)(=O)Nc2ncccn2)cc1)c1ccc2ccccc2c1  8.92%
32. COc1ccc(C(=O)NC2CCCCCCC2)cc1OC  9.08%
33. Cc1cccc(NC(=S)NNC(=O)c2ccccc2Br)c1  9.19%
34. Nc1c(N2CCCCC2)c(=O)[nH]c(=O)n1-c1ccccc1  9.43%
35. Cc1ccc(CNC(=O)COC(=O)c2ccc(S(=O)(=O)NCc3ccco3)cc2)cc1  9.7%
36. Cc1cccc(NC(=O)c2ccc(NCCc3ccccc3)c([N+](=O)[O-])c2)c1  9.98%
37. CNC(=S)NNC(=O)c1cc(-c2cccnc2)nc2ccccc12  10%
38. O=C(O)CNS(=O)(=O)/C=C/c1ccccc1  10.2%
39. COc1ccc(-c2nnn(CCc3nn[nH]n3)n2)cc1  10.2%
40. COc1ccc(-c2noc(N3CCCC(C(=O)Nc4ccccc4F)C3)n2)cc1 (stereo not shown)  10.3%
41. C=CCN1C=C2C(=O)C(C)(OC(=O)C3CCCC3)C(=O)C(c3ccccc3)=C2C=C1CCCC(=O)OC (stereo not shown)  10.8%
42. COC(=O)c1cc(NC(C)=O)ccc1N1CCOCC1  10.9%
43. Cc1cccc(NC(=O)CCC(=O)N/N=C/c2ccncc2)c1  11.9%
44. Cc1nnc(N(C)C(=O)c2ccncc2)s1  12%
45. Cc1ccnc2nc(C(=O)Nc3ccc(N4CCOCC4)cc3)nn12  12.4%
46. COc1ccc(N2COC3c4cccc5cccc(c45)C32)cc1 (stereo not shown)  13.3%
47. Cc1nn(C)cc1CN(C)S(=O)(=O)c1cccc([N+](=O)[O-])c1  13.5%
48. COC(=O)C1=C(C)NC(C)=C(C(=O)OC)C1c1ccc(-c2cccc(Cl)c2Cl)o1  13.6%
49. COc1ccc(CSc2nnc(CNS(C)(=O)=O)o2)cc1  13.6%
50. CNS(=O)(=O)c1cccc(C(=O)NNC(=O)CN(C)S(=O)(=O)c2ccc(Cl)cc2)c1  13.8%
51. CCN1C(=O)C(CC(=O)Nc2c(C)cccc2C)SC1=Nc1ccc(S(N)(=O)=O)cc1 (stereo not shown)  15.5%
52. O=C1ON=C(c2ccccc2)/C1=C/c1ccc(O)c(O)c1  15.5%
53. COc1ccc(CCNC(=O)CN(c2cc([N+](=O)[O-])ccc2OC)S(C)(=O)=O)cc1  16.9%
54. Cc1ccc(S(=O)(=O)C2C(=O)N(C)C3(C)CC2c2ccccc2O3)cc1 (stereo not shown)  16.9%
55. CCCCSC1=N/C(=C/c2ccsc2)C(=O)N1c1ccccc1  17.1%
